From publication PMC7819943, “Rice protein-binding microarrays: a tool to detect cis-acting elements near promoter regions in rice” come the findings set out here.

Some of the results follow.

This assay has as its target T1, OsWOX13 (Oryza sativa, UniProt Q5QMM3 1-267).
T1 sequence: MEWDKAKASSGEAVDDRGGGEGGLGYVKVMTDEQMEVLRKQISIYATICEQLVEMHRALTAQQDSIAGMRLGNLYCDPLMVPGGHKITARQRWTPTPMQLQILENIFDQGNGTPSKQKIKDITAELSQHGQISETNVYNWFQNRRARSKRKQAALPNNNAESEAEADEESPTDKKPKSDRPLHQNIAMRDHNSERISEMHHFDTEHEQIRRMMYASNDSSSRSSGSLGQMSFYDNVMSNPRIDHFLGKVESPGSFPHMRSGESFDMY
Briefly: protein-binding microarray (RPBM); PBS, 2% BSA, 51.3 ng/ul salmon testes DNA, 50 uM zinc acetate, 200 nM TF, 25 C, 1 h; high values mean tight binding. As to conditions: protein: recombinant; tags: N-terminal polyhistidine and DsRed monomer fusion (pET32a); label: CyDye5-dUTP incorporated in the synthesized complementary strand; 3' TTTTT single-stranded linker to array surface; dsDNA, one strand shown. The procedure, abridged:
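Transcription factors, each fused N-terminally to a polyhistidine tag and DsRed, were expressed in E. coli BL21-CodonPlus and purified on Ni–NTA. A custom Agilent array was made double-stranded by primer extension with Cy5-dUTP and blocked with 2% BSA. It was incubated with 200 nM protein in PBS, 2% BSA, salmon testes DNA and 50 µM zinc acetate at 25 °C for 1 h, then washed. The binding signal is per-feature fluorescence intensity (arbitrary units) read on an Axon 4000B scanner.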
As to “GTCTAGATTTATTGCATTGACATAGATAGCATGCATGGCTCGGAGTCACCTAGTGCAG”, the binding signal was 14500 fluorescence intensity (a.u.). Next, “AAAATTAGAGTCCAATCATTCTACTGATTAGAACTTACACCGGAGTCACCTAGTGCAG”: 34600 fluorescence intensity (a.u.); “TATATGTAATTACACTGTAACTTGCATGTAACTACAGTGTCGGAGTCACCTAGTGCAG”: 22700 fluorescence intensity (a.u.). The value for “TTGAATTGGTGCATAAACAAACATTTTGCCTTCTCCAGGTCGGAGTCACCTAGTGCAG” was 4470 fluorescence intensity (a.u.); that for “ATCCTTAATATGACATGATTAATGGATATTAGATTGTACCCGGAGTCACCTAGTGCAG” was 20300 fluorescence intensity (a.u.). The value for “TGGATTGAAAATTGTATTGATCAAGCAACAACAGCCACCTCGGAGTCACCTAGTGCAG” was 18800 fluorescence intensity (a.u.); that for “TTGTATAAATTGGCTATTAGATTGGCTATAGATTAATTGGCGGAGTCACCTAGTGCAG” was 58900 fluorescence intensity (a.u.); that for “TATAGTAAATTTAGTATTGAATCTATAGTTGTTAAATATGCGGAGTCACCTAGTGCAG” was 5960 fluorescence intensity (a.u.). Take “CACAAAGCATCAATCAAACAATTGATACAACTCTGATAGTCGGAGTCACCTAGTGCAG”: the binding signal is 20100 fluorescence intensity (a.u.). The value for “AGTATTAAACATAGACTAATCATAAAACACATTCCATAACCGGAGTCACCTAGTGCAG” was 3260 fluorescence intensity (a.u.).

On to “AGCAGTAATTTTGAGTTAACAAAGCAAGTTTAGAGTTTTGCGGAGTCACCTAGTGCAG”, for which the binding signal is 14000 fluorescence intensity (a.u.). Next, “AAATTGAATAGTAATTGTGTTATTTTGGATTGAAGCCAAACGGAGTCACCTAGTGCAG”: 6690 fluorescence intensity (a.u.); “TTATTGATTGATTGAATCAGACTGAAATTCCAAACCACGACGGAGTCACCTAGTGCAG”: 63100 fluorescence intensity (a.u.); “GGATGGGGAGTTGATTGCGGGAGGGATGAGTGTGGACGCACGGAGTCACCTAGTGCAG”: 18400 fluorescence intensity (a.u.). The value for “GAAGATTGAATCCCTCTGGTGTATATTACCTTCTGTTCTTCGGAGTCACCTAGTGCAG” was 31000 fluorescence intensity (a.u.). Turning to “TACATGTATAATTTATTTTGTGAATTTAGACGAAATTTCCCGGAGTCACCTAGTGCAG”, the binding signal was 6010 fluorescence intensity (a.u.).

Consider “GAAACAAACAAAGCGTGATTGATGGCTATCTAGGTACATACGGAGTCACCTAGTGCAG”, for which the binding signal was 37200 fluorescence intensity (a.u.). For “CAGATAGACATACCGATAATAAAAGTGACTGAAAGTAAAACGGAGTCACCTAGTGCAG”, the binding signal was 5230 fluorescence intensity (a.u.). Consider “CCGTTTCACAATGTAATTATTGAATTGCATTGCTCAACCGCGGAGTCACCTAGTGCAG”, for which the binding signal is 4730 fluorescence intensity (a.u.). Next, “TTACTAGATTTATCATTAAACATACTATCATAATATGCAACGGAGTCACCTAGTGCAG”: 6040 fluorescence intensity (a.u.).

Consider “AAATTGATTATAGATAATTTAGATATAGTAGGTAGCTATACGGAGTCACCTAGTGCAG”, for which the binding signal is 18800 fluorescence intensity (a.u.). The value for “AGTCAGATTGATTGTTGACTTGCCTGTAGCTGAACTCAGCCGGAGTCACCTAGTGCAG” was 44200 fluorescence intensity (a.u.); that for “ACTAATAACAAAACAAATTACAGATTTCGCCTATAAACTGCGGAGTCACCTAGTGCAG” was 5510 fluorescence intensity (a.u.).

As to “TATATTCAATTATTGATTTGATGAAACTAAGTTAGTATCGCGGAGTCACCTAGTGCAG”, the binding signal is 44800 fluorescence intensity (a.u.).

In the case of “GTGATTAGCCATTCCTCTTCTCATCTCTAGCCACTTCGCTCGGAGTCACCTAGTGCAG”, the binding signal is 15500 fluorescence intensity (a.u.). With “ATTAATTAGGCTTAATAAATTCGTTTCGCAGTTTACAGGCCGGAGTCACCTAGTGCAG”, the binding signal was 33000 fluorescence intensity (a.u.).

For “CGCTTTCCAATTACCACACTTTCTTTCTTCTCTGAATGTACGGAGTCACCTAGTGCAG”, the binding signal was 5850 fluorescence intensity (a.u.). The value for “GATTCATTGACAAGTTAAGGGACCTCATATGAACTTATTCCGGAGTCACCTAGTGCAG” was 4570 fluorescence intensity (a.u.); that for “GTGATGATCAATTATGAACGAAACGAAGGGAGTAAAGCTTCGGAGTCACCTAGTGCAG” was 16400 fluorescence intensity (a.u.); that for “TTCTGGATTAATTGCGGAATTAGAGAGTTTGATCATAACCCGGAGTCACCTAGTGCAG” was 20500 fluorescence intensity (a.u.). The value for “TAATTTTGACAGGATTTCTTATGTATTTACTAAATTTGGCCGGAGTCACCTAGTGCAG” was 21400 fluorescence intensity (a.u.); that for “TCTGATCGATGAGTATAAATTTATATACCTTGTTCGTTCGCGGAGTCACCTAGTGCAG” was 13400 fluorescence intensity (a.u.); that for “GGGAACTATCAATTAGACCATCTTTGCTTCAAGGTAATCTCGGAGTCACCTAGTGCAG” was 14200 fluorescence intensity (a.u.). Consider “TACATATGTCTAGATTTATTAACATCTAAATGAATATAGGCGGAGTCACCTAGTGCAG”, for which the binding signal was 3340 fluorescence intensity (a.u.).

Turning to “TGTTGATGAGCTAAAGGTTGCAAATTGGAATGGTTTGGGGCGGAGTCACCTAGTGCAG”, the binding signal was 9920 fluorescence intensity (a.u.). Next, “TTCCTAATTGCTCTGTTTTAGCTGCCACAGGGAATCAACTCGGAGTCACCTAGTGCAG”: 10900 fluorescence intensity (a.u.); “TACATCACTAATCACGTTGCTTCGATGACACCTCCTTCTTCGGAGTCACCTAGTGCAG”: 7440 fluorescence intensity (a.u.). The value for “TACAAACTATATACTAATTGGTTGTAACCTCTTTGAAGTACGGAGTCACCTAGTGCAG” was 28700 fluorescence intensity (a.u.); that for “ATTATTTCTGGATTAATTAATATCACTCCTGAAATGGTGGCGGAGTCACCTAGTGCAG” was 5820 fluorescence intensity (a.u.).

With “GTTGACAACTTTCCAATTTGAAATCATTTACTATCCAAAACGGAGTCACCTAGTGCAG”, the binding signal was 4920 fluorescence intensity (a.u.). In the case of “GAGTATTAAGAAAATTGATAGTTTTAGAAGCATATGACACCGGAGTCACCTAGTGCAG”, the binding signal is 3370 fluorescence intensity (a.u.). Next, “TTAATTAACTTCATAATCTACAGTATATTGAATTAATCTACGGAGTCACCTAGTGCAG”: 9540 fluorescence intensity (a.u.).
